From article PMC6919601, “Identification of Plasmodium dipeptidyl aminopeptidase allosteric inhibitors by high throughput screening” (PLoS ONE, 2019)
In all, about 110,000 compounds went through this assay and about 230 (0.21%) showed an effect of 50% or more. The list shows a part of the results.

Target: DPAP1 (Plasmodium falciparum, UniProt Q8IIJ9)
Assay: primary screen, percent inhibition; read by cleavage of a fluorogenic dipeptide substrate; higher = more effect of the substance
Set-up: species or system P. falciparum D10 trophozoite lysates; single well
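Note: 30 min substrate incubation versus DMSO and 10 µM JCP410 controls.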

Chain of DPAP1 (Q8IIJ9 whole entry, looked up): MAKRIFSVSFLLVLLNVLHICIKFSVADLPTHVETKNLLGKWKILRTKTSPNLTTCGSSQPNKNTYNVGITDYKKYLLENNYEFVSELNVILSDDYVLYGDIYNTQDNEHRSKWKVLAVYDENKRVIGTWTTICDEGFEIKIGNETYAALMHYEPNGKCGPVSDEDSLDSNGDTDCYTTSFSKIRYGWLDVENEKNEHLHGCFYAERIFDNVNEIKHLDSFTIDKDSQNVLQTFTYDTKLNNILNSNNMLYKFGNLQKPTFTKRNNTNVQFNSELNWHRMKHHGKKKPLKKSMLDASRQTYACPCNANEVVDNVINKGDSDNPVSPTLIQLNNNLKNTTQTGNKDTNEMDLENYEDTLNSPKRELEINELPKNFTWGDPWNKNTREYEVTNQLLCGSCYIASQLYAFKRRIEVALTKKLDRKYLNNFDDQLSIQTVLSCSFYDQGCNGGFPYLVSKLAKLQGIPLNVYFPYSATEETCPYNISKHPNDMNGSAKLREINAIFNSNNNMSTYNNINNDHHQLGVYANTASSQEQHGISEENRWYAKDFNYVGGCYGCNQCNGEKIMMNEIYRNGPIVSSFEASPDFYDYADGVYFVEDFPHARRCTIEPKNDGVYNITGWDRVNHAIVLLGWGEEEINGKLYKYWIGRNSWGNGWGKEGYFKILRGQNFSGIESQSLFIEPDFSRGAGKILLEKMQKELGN

Compound | % Inhibition @ 10 uM
Cc1cc(Br)ccc1OCC(=O)Nc1ccc(S(=O)(=O)N2CCCCCC2)cc1 | 1.62%
COc1cc(/C=C2/C(=N)N3OC(C)=CC3=NC2=O)cc(Cl)c1OCCOc1cc(C)cc(C)c1 | 3.63%
Cc1cc(C)cc(-n2nnc(-c3nc(-c4cccs4)no3)c2N)c1 | 3.22%
COc1ccc(/C=C/C(=O)NCc2ccco2)cc1 | -6.06%
CC1(C)CC(=O)C(/C=N/CCN2CCN(CC(=O)Nc3cc(Cl)cc(Cl)c3)CC2)=C(O)C1 | 0.722%
Cc1c(C(c2ccc(Cl)cc2)c2c(C)n(C)n(-c3ccccc3)c2=O)c(=O)n(-c2ccccc2)n1C | -4.87%
Nc1ncnc(N2CCOCC2)c1[N+](=O)[O-] | -8.51%
Cc1cc(=O)oc(C)c1C(=O)NCc1c(F)cc(F)cc1F | -0.519%
Cn1c(=O)c2c(nc(NCCc3ccccc3)n2Cc2ccccc2F)n(C)c1=O | 0.0289%
CCc1c(CCC(C)=O)oc2ccc(C)cc12 | 0.132%
O=C(O)c1ccc(N2C(=O)c3cccc4cc(Br)cc(c34)C2=O)cc1 | -3.69%
CCCCCNc1nc(S)nc2cc(OC)c(OC)cc12 | 0.708%
CC(=O)N1CCN(CC(O)COc2ccc(Br)cc2)CC1 (stereo not shown) | -3.18%
Cc1ccc(C2N3CCCN23)cc1 (stereo not shown) | -2.88%
CCOc1ccc(C(=O)Nc2nc(-c3ccccc3)c(C)s2)cc1 | -1.02%
CSc1ccc(CN2CCN(Cc3ccc4c(c3)OCO4)CC2)cc1 | 0.847%
COCc1cc(C)nc(SCC(=O)NCc2ccccc2)c1C#N | 4.09%
Cc1cccc(OCCn2c(C3CCCO3)nc3ccccc32)c1 (stereo not shown) | -2.99%
CCN(CC)C(=O)C1CCCN(Cc2ccc([N+](=O)[O-])cc2)C1 (stereo not shown) | -0.0404%
O=C(Nc1ccc2c(c1)OCO2)c1cc2nc(-c3ccc4c(c3)OCO4)cc(C(F)(F)F)n2n1 | -2.29%
COc1cc(OC)cc(C(=O)Nc2nc(-c3nnn(-c4cc(Cl)ccc4C)c3C)ns2)c1 | -5.86%
CCC(=O)NS(=O)(=O)c1cc(Nc2cccc(Cl)c2Cl)ccn1 | -3.92%

Compound | % Inhibition @ 10 uM
CC1=[N+](C)C(C)(C)Cc2ccccc21 | 1.12%
COc1cc2cc(C(=O)O)[nH]c2c2c1OCCC2=O | -2.29%
COc1ccc(OCC(=O)Nc2cccnc2Cl)cc1 | 1.89%
CC(=O)Nc1ccc(NC(=O)C2CCN(S(=O)(=O)c3ccc(C)cc3)CC2)cc1 | 2.17%
Cc1nn(Cc2cccc(F)c2)c(C)c1NC(=O)c1c(Cl)cnn1C | -7.4%
CCCCC1CCC(C(=O)Nc2nc3ccccc3n2C)CC1 (stereo not shown) | 0.98%
O=C(NC(=O)c1cccs1)Nc1nc(-c2ccc(F)cc2)cc(C(F)(F)F)n1 | -4.42%
COc1cccc(-c2cc(C(=O)N(C)C3CCCCC3)[nH]n2)c1 | -0.537%
CCOc1cc(C2NC(=O)c3c(sc4c3CCCC4)N2)ccc1O (stereo not shown) | 10.2%
COc1ccc(OC)c(NS(=O)(=O)c2ccc3ccccc3c2)c1 | 6.1%
Cc1c(C(=O)N2CCCCC2)sc(NC(=O)c2ccc(F)cc2)c1C#N | -4.49%
CN1/C(=C\C(=O)Nc2ccc(Cl)cc2)c2ccccc2CC1(C)C | -4.98%
CCn1c(C(=O)NCCC(C)C)cc2oc3ccccc3c21 | -2.17%
Nc1ccc2oc(-c3ccc(-c4ccccc4)cc3)nc2c1 | 5.77%
Oc1ccc2occ(C(O)c3ccccc3)c2c1CN1CCOCC1 (stereo not shown) | 2.4%
CC(C)c1ccc(NC(=O)Cc2ccc(-c3ccccc3)cc2)cc1 | -2.36%
CCOc1cccc(C(=O)Nc2nc3ccc(OCC)cc3s2)c1 | 2.92%
COc1ccc(C(=O)N2CCc3ccccc32)cc1 | 1.7%
Cc1ccc(-c2cc(C(=O)N3CCN(S(=O)(=O)c4c(C)nc(O)nc4O)CC3)[nH]n2)c(C)c1 | 2.75%
NC(=O)Cn1cnc2c(nnn2-c2cccc(Cl)c2)c1=O | -2.16%
COc1ccc(CC(=O)Nc2nc(-c3ccccc3)c(C)s2)cc1OC | -0.63%
CSc1nc(C)cc(Oc2ccc(OCc3ccccc3)nn2)n1 | -7.8%

Compound | % Inhibition @ 10 uM
CC(C)C[C@H](NC(=O)c1ccc(-c2ccccc2F)cc1)C(=O)NCC#N | -6.46%
CC(C)Cn1cc(NC(=O)N(Cc2ccco2)C2CCCCC2)c2ccccc2c1=O | -3.45%
Cc1ccc(NC(=O)Cn2ncc3c(=O)oc4ccc(C)cc4c32)nc1 | 1.62%
Cc1ccccc1OC(C)C(=O)Nc1cccc2cccnc12 (stereo not shown) | -4.02%
CC1=CC(c2ccc(C)cc2)C=C(c2ccc(C)cc2)O1 (stereo not shown) | -3.41%
CCN(CC)CCC(=O)c1ccc(O)cc1 | 3.18%
Cc1ccc(N2CC(C(=O)Nc3cc(Cl)cc(Cl)c3)CC2=O)cc1 (stereo not shown) | -4.33%
COc1cc(S(=O)(=O)N2CCN=C2c2ccccc2)c(OC)cc1Cl | 0.245%
COc1ccc2oc(=O)c(-c3csc(NC4CCCCC4)n3)cc2c1 | 3.54%
CCCc1cc(O)n2nc(Cc3ccccc3)c(-c3ccc(OC)cc3)c2n1 | -3.77%
O=C(c1ccc([N+](=O)[O-])cc1Cl)N(Cc1ccccc1)Cc1ccccc1 | -7.28%
Cn1c(=O)[nH]c(=O)c2c1nc(N1CCOCC1)n2CCCc1ccccc1 | -1.07%
O=C(Nc1ccccc1)C1(c2ccccc2)CCC(O)C1 (stereo not shown) | -1.88%
O=S(=O)(c1ccc(-c2ccc(O)nn2)o1)N1CCN(Cc2ccccc2)CC1 | -7.36%
CC1(C)CC(=O)c2c(O)c(-c3ccccc3)c(=O)n(-c3ccccc3)c2C1 | -0.25%
Cc1ccc(-n2nc3c(=O)n(CCCC(=O)N4CCc5ccccc5C4)nc(C)c3c2C)cc1 | -6.53%
CCOc1ccc(C(=O)n2nnc3ccccc32)cc1 | 6.59%
NC(=O)c1c(NC(=O)Nc2cccc(Cl)c2)sc2c1CCCC2 | 0.13%
N#Cc1ccccc1CSc1nc2ccccc2o1 | 3.31%
O=S1(=O)C(/C=N/c2cccnc2)=C(O)c2sccc2N1Cc1ccccc1 | 8.83%
